In all, about 150,000 compounds went through this assay and about 540 (0.36%) showed an effect of 50% or more. The list shows a part of the results.

This assay has as its system Plasmodium falciparum. As to the kind of experiment: Primary screen in NF54 nanoGlo assay, in single point, at 2uM, 72h; a lower Z score goes with more inhibition. It is filed as functional, Erythrocyte. The conditions noted are these: timepoint 72 hour.
Broadly, the % Inhibition is the relative decrease from the control value, in per cent. As to `CCN(CC)c1nc(N)n(CCO)c(=O)n1`, the “% Inhibition” value is recorded as -13% and the Z score came out at 1.18.
On to `CC(=O)N1CCC(CNC[C@H](O)c2ccc(Cl)c(Cl)c2)CC1`, for which the “% Inhibition” value came out at 1% and the Z score is -0.21.
For `O=C(CCS(=O)(=O)Cc1csc(C2CCCCC2)n1)Nc1ccccc1`, the “% Inhibition” value is -7% and the Z score stood at 1.3.
With `Cc1n[nH]c(C)c1[C@H](C)NC(=O)Cn1cccn1`, the “% Inhibition” value is listed as -8% and the Z score came out at 1.25.
With `Cc1cc(-c2cnn(CC(=O)Nc3nn(C)c4ccccc34)c2)nc(N)n1`, the “% Inhibition” value is recorded as 1% and the Z score is -0.15.
`Cn1nc(C2CC2)n(C2CCN(Cc3ccccc3)CC2)c1=O`: the “% Inhibition” value is -6% and the Z score worked out at 0.87.
Consider `CN(Cc1ccc(F)c(F)c1)C(=O)Cc1csc(-c2ccoc2)n1`, for which the “% Inhibition” value was -10% and the Z score is recorded as 1.13.
`CCOC(=O)CC1(N(C)C(=O)[C@H]2CCOC2)CCCCC1`: the “% Inhibition” value is listed as -1% and the Z score amounted to 0.1.
Consider `Cc1nc(CC(C)C)c(O)c2c1S(=O)(=O)CC2=O`, for which the “% Inhibition” value was 10% and the Z score was -1.66.
Take `O=C(CN1CCC[C@H]1CO)Nc1ccccc1`: the “% Inhibition” value is listed as -2% and the Z score stood at 0.26.
Regarding `Cc1ccc(N2CCN(Cc3ccn(C)c(=O)c3)CC2)cc1`, the “% Inhibition” value is reported as -11% and the Z score is given as 1.21.
As for `COC(=O)CC1(NCc2cc(C)cc(C)c2)CCS(=O)(=O)CC1`, the “% Inhibition” value is -11% and the Z score is 2.13.
For the compound `CCOc1ncccc1NC(=O)CCCc1ccc2[nH]c(=O)[nH]c2c1`, the “% Inhibition” value was -5% and the Z score amounted to 0.88.
Regarding `C[C@]12C(=O)N(CCN3CCOCC3)CC(=O)N1CCc1c2[nH]c2ccccc12`, the “% Inhibition” value is on record as -8% and the Z score was determined as 1.45.
On to `CCOc1ccc(CN2C[C@@H](CO)[C@H](NC(=O)c3cnccn3)C2)cc1`, for which the “% Inhibition” value is -14% and the Z score worked out at 2.46.
`Cc1cc(-c2cc(-c3ccc(C(F)(F)F)cc3)nc(CC(N)=O)n2)c(C)o1`: the “% Inhibition” value is -7% and the Z score turned out to be 0.66.
Turning to `CCC[C@H](Nc1nccn2nnnc12)C1CCC1`, the “% Inhibition” value amounted to 16% and the Z score is listed as -1.89.
On to `CCN(CC(=O)NC(C)C)S(=O)(=O)c1cccc(F)c1C(=O)OC`, for which the “% Inhibition” value was -2% and the Z score was found to be 0.51.
As to `COc1ccc([C@@H](O)C(=O)N2CCC3(CCC(=O)N(C4CC4)C3)CC2)cc1`, the “% Inhibition” value is on record as -5% and the Z score was found to be 0.54.
`Cc1ccc(-c2noc(C3CC3)n2)cc1-n1cc(C(=O)N2CCN(c3cccc(C)c3C)CC2)c(C)n1`: the “% Inhibition” value is 3% and the Z score is -0.36.
For the compound `Cc1nn(CC(=O)N2CCC[C@H](c3cc(O)ncn3)C2)c(C)c1C`, the “% Inhibition” value is given as -1% and the Z score worked out at 0.25.
Regarding `CCN=C(NCc1noc(C)n1)NC1CCCC(CC)C1` (stereo not drawn), the “% Inhibition” value is recorded as 3% and the Z score is -0.32.
`CN(Cc1cccc(F)c1F)[C@H](c1ccccn1)C1CC1`: the “% Inhibition” value is on record as -15% and the Z score is 1.39.
The corresponding values for `Cc1nsc(NCc2ccncn2)n1` are -1% and 0.1.
Turning to `COc1ccc(F)cc1S(=O)(=O)N1C[C@@H]2C[C@H](NC(=O)c3ccccc3)[C@H]1C2`, the “% Inhibition” value turned out to be 29% and the Z score is recorded as -3.24.
As for `Cc1cc2c3c([nH]c2cc1S(=O)(=O)NCCc1ccc(Cl)cc1)CCCC3=O`, the “% Inhibition” value is on record as -14% and the Z score was found to be 2.25.
As for `COc1ccc2c(c1)C(c1ccc(F)cc1)=C(CN1CCCC1)CO2`, the “% Inhibition” value was 4% and the Z score is recorded as -0.49.
In the case of `COc1cccc(O)c1S(=O)(=O)N1CCC[C@H](c2nnc[nH]2)C1`, the “% Inhibition” value was 11% and the Z score is -1.45.
`Cc1cc(NC(=O)CN[C@@H](C)c2cccc(Cl)c2Cl)n(C)n1`: the “% Inhibition” value is -8% and the Z score was found to be 1.04.
For `Cc1nc2c(N3CCC4(CC3)N=C(N)NC4=O)ncnc2o1`, the “% Inhibition” value is -1% and the Z score is listed as 0.13.
Take `Cc1ccc(C(=O)NCC(C)(C)N2CCOCC2)nc1C`: the “% Inhibition” value was -1% and the Z score was 0.15.
With `CC(C)c1ccc2c(c1)[C@@H](NC1CCN(CC(N)=O)CC1)CCC2`, the “% Inhibition” value is on record as -5% and the Z score is recorded as 0.78.
On the same counts, the results for `O=C(Cc1cn(-c2ccccc2)nc1-c1ccc(Cl)cc1)OCc1c(F)cccc1Cl` are -12% and 1.89.
On the same counts, the results for `Cc1ccc2cccc(C(=O)N3CCC(N4CCC(Oc5nccs5)CC4)CC3)c2n1` are -14% and 1.76.
On the same counts, the results for `CC(C)c1ccc(NC(=O)CCCC(=O)N2CCN(c3ccccn3)CC2)cc1` are -6% and 0.92.
For the compound `Cc1noc(C)c1CN(C)C(=O)NCc1nc2c(C)cccc2o1`, the “% Inhibition” value was -8% and the Z score turned out to be 1.14.
`O=C(NCC1CCCO1)C1CCCc2ccccc21` (stereo not drawn): the “% Inhibition” value is listed as -2% and the Z score is given as 0.28.
With `NC(=O)c1c(NC(=O)CN2CCC[C@H]2c2cccs2)sc2c1CCCC2`, the “% Inhibition” value is recorded as -5% and the Z score was found to be 0.99.
As to `COc1ccc(CCNC(=O)c2cc(-c3ccc4ccccc4c3)on2)cc1OC`, the “% Inhibition” value is -9% and the Z score is reported as 0.76.
The corresponding values for `COc1ccc(F)c(CN2CCC[C@@]3(CCN(Cc4cccnc4)C3)C2)c1` are 4% and -0.59.
Turning to `CCOc1ccc(NC(=O)Nc2nc3c(s2)CN(S(=O)(=O)c2ccc(OC)cc2)CC3)cc1`, the “% Inhibition” value was -14% and the Z score is 1.31.
Regarding `O=C(c1ccc(=O)[nH]c1)N1CCC[C@H](Oc2cnccn2)C1`, the “% Inhibition” value was -2% and the Z score is given as 0.36.
Turning to `CC(C)(C)c1cc(NCc2nnc3ccc(Cl)cn23)ncn1`, the “% Inhibition” value was -17% and the Z score came to 2.29.
Take `COc1cccc(C(=O)N2C(C(=O)NCC3CCCO3)COC23CCN(C(=O)c2ccccc2F)CC3)c1` (stereo not drawn): the “% Inhibition” value is listed as -2% and the Z score came to 0.3.
In the case of `O[C@H]1CCCN(c2ncccc2CNc2cnc3ccccc3n2)C1`, the “% Inhibition” value is 3% and the Z score is on record as -0.25.
Regarding `CN1CCC(CNC(=O)Nc2ccccc2N2CC3CCC2C3)CC1` (stereo not drawn), the “% Inhibition” value was -10% and the Z score came to 1.41.
Take `O=C(O)c1cccc(NC(=O)c2nc(-n3cnnc3)ccc2Br)c1`: the “% Inhibition” value is on record as -8% and the Z score was 1.06.
The corresponding values for `O=C(NCCN1CCOC1=O)c1cn(C/C=C/c2ccccc2)nn1` are -13% and 1.67.
For the compound `Cc1cccc(-c2ccc(C(=O)N3CC(C(N)=O)CCC3C)c(=O)[nH]2)c1` (stereo not drawn), the “% Inhibition” value was -17% and the Z score was determined as 2.18.
On the same counts, the results for `Cc1cc(NC(=O)c2ccc(Cl)c(F)c2)nc(=O)[nH]1` are -4% and 0.38.
On to `CC(C)[C@@H](C#N)N1CCN(CC(=O)NCc2ccccn2)CC1`, for which the “% Inhibition” value amounted to 1% and the Z score is -0.18.
On the same counts, the results for `c1ccc2c3nc(nc2c1)CCCCCCCCCCCN3` are -4% and 0.57.
On to `O=C(Nc1cccc(F)c1)c1nnc(CCCC(=O)N2CCCCC2)s1`, for which the “% Inhibition” value is -11% and the Z score is 1.61.
As to `CC(=O)c1cc(CN(C)CCc2c(C)n[nH]c2C)n(C)c1`, the “% Inhibition” value was -14% and the Z score worked out at 1.57.
Take `C[C@@H](Cn1cccn1)C(=O)N1CCc2c(Cl)cccc2C1`: the “% Inhibition” value is on record as -14% and the Z score is 1.46.
On the same counts, the results for `COc1cc(OC)cc(-n2ccc(=O)c(Cc3c(Cl)cccc3Cl)c2C)c1` are 0% and 0.07.
Take `O=C(Nc1cc(Cl)cc(Cl)c1)N1CCN(Cc2nnc3n2CCCCC3)CC1`: the “% Inhibition” value is -8% and the Z score was 1.08.
On the same counts, the results for `COc1ccc2c(NC3CCC(C(=O)O)CC3)ncnc2c1F` (stereo not drawn) are 12% and -1.54.
For `CCCc1nccn1Cc1ccc(-n2ccnc2)cc1`, the “% Inhibition” value was -9% and the Z score stood at 1.14.
For `CC(C)CNC(=O)c1nn(-c2ccccc2)c2ccccc2c1=O`, the “% Inhibition” value is reported as -10% and the Z score was determined as 1.32.
With `COCC1CCN(C(=O)[C@@H]2CCCn3c(-c4ccccc4)cnc32)CC1`, the “% Inhibition” value is -14% and the Z score is reported as 2.02.
Take `COc1ccc(S(=O)(=O)Nc2ccc(N(C)C)c(CN(CC(C)C)C(=O)CC(C)(C)C)c2)cc1`: the “% Inhibition” value is -2% and the Z score worked out at 0.3.
The corresponding values for `CC(C)n1cnc(C(=O)N2CC3(CCC3)C3COCC32)c1` (stereo not drawn) are -3% and 0.62.
In the case of `CCc1ccc([C@@H]2CN(C(=O)c3cscn3)CCN2)cc1`, the “% Inhibition” value is -4% and the Z score was 0.61.
For the compound `CC(=O)Nc1nc(C(=O)N2CCc3[nH]ncc3C2)cs1`, the “% Inhibition” value is listed as -7% and the Z score was determined as 1.12.
With `CC1CC(O)(/C=C/C2(O)CCCCC2)C(C)CN1C` (stereo not drawn), the “% Inhibition” value is -12% and the Z score came out at 1.36.
In the case of `O=C(CC1CCCC1)NCCCOC[C@H]1CCCO1`, the “% Inhibition” value was determined as 5% and the Z score is listed as -0.7.
As for `COc1ccc(-c2ccc(N3CCCN(C(=O)CN(Cc4ccco4)C(=O)c4ccc(Cl)cc4Cl)CC3)nn2)cc1OC`, the “% Inhibition” value was -19% and the Z score was determined as 2.77.
For the compound `O=C(CCn1cnnn1)N1CCc2[nH]c3ccc(F)cc3c2C1`, the “% Inhibition” value is -1% and the Z score came to 0.14.
On the same counts, the results for `C=C(C)CC(C)C(=O)N1CCCCC1C(C)CN(C)C` (stereo not drawn) are -12% and 1.48.
On the same counts, the results for `CC(=O)N1CCN(C(=O)NCc2cc(F)ccc2C)C[C@@H](O)C1` are -9% and 0.8.
On the same counts, the results for `CC(NC(=O)C1CCCN(c2nc3ccccc3n2C2CCCC2)C1)c1ccccc1` (stereo not drawn) are -11% and 1.49.
Turning to `CC1(C)CCc2nnc(-c3cccnc3)n2C1`, the “% Inhibition” value is listed as -5% and the Z score worked out at 0.9.
As for `CCc1ccc(C(NC(=O)C2CCNC2)C(C)(C)C)o1` (stereo not drawn), the “% Inhibition” value was found to be 46% and the Z score was -5.46.
Consider `Cn1cc(CNC(=O)c2coc(COc3cccc(C(F)(F)F)c3)n2)cn1`, for which the “% Inhibition” value was -11% and the Z score worked out at 1.32.
`CCCOc1ccc(CCNC(=O)N(C)[C@H]2CS(=O)(=O)C[C@@H]2O)cc1`: the “% Inhibition” value worked out at 3% and the Z score is -0.53.
Consider `Cc1ccc(S(=O)(=O)NCC(F)(F)CO)o1`, for which the “% Inhibition” value was -6% and the Z score is on record as 0.99.
Turning to `CC(C)c1ncc(-c2ccc(C(=O)NCCc3ncnn3C)cc2)s1`, the “% Inhibition” value is given as -11% and the Z score worked out at 1.47.
Turning to `O=C(c1cccc2cc[nH]c12)N1CCN(Cc2cccc(-c3noc(-c4cccc(C(F)(F)F)c4)n3)c2)CC1`, the “% Inhibition” value was 8% and the Z score is -0.96.
For the compound `CC(C)(C)n1nnc(CNC(=O)NC2CC(=O)N3CCCCC23)n1` (stereo not drawn), the “% Inhibition” value is listed as -9% and the Z score turned out to be 1.22.
Turning to `Cc1cc(NC(=O)COC(=O)[C@H]2CC(=O)N(c3ccccc3)C2)no1`, the “% Inhibition” value is 9% and the Z score was -1.06.
Turning to `CC(C)N(CC(=O)N(Cc1cccn1Cc1ccccc1Cl)C1CCCCC1)S(=O)(=O)c1ccc2ccccc2c1`, the “% Inhibition” value is recorded as -6% and the Z score is 0.94.
As for `Cc1nnsc1CN(C)C(=O)COC[C@H]1CCCCO1`, the “% Inhibition” value is recorded as -13% and the Z score is 1.63.
For `OC[C@@H](c1ccc(Cl)cc1)N1CCN(Cc2nncs2)CC1`, the “% Inhibition” value turned out to be 4% and the Z score was -0.9.

Source of the values: ChEMBL document CHEMBL4888484, “Replenishing the malaria drug discovery pipeline: Screening and hit evaluation of the MMV Hit Generation Library 1 (HGL1) against asexual blood stage Plasmodium falciparum ,using a nano luciferase reporter read-out” (2022).
